About 14,000 (4.5%) of roughly 310,000 compounds showed an effect of 50% or more. Effects have a minus sign here. The list shows a part of the results.
target: human ether-à-go-go-related gene (hERG) potassium channel (human, UniProt Q12809); test: primary screen, population patch clamp on CHO cells stably expressing hERG
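Further: peak tail current of the secondary pulse compared with the same well before compound.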

Chain of human ether-à-go-go-related gene (hERG) potassium channel (Q12809 whole entry, looked up): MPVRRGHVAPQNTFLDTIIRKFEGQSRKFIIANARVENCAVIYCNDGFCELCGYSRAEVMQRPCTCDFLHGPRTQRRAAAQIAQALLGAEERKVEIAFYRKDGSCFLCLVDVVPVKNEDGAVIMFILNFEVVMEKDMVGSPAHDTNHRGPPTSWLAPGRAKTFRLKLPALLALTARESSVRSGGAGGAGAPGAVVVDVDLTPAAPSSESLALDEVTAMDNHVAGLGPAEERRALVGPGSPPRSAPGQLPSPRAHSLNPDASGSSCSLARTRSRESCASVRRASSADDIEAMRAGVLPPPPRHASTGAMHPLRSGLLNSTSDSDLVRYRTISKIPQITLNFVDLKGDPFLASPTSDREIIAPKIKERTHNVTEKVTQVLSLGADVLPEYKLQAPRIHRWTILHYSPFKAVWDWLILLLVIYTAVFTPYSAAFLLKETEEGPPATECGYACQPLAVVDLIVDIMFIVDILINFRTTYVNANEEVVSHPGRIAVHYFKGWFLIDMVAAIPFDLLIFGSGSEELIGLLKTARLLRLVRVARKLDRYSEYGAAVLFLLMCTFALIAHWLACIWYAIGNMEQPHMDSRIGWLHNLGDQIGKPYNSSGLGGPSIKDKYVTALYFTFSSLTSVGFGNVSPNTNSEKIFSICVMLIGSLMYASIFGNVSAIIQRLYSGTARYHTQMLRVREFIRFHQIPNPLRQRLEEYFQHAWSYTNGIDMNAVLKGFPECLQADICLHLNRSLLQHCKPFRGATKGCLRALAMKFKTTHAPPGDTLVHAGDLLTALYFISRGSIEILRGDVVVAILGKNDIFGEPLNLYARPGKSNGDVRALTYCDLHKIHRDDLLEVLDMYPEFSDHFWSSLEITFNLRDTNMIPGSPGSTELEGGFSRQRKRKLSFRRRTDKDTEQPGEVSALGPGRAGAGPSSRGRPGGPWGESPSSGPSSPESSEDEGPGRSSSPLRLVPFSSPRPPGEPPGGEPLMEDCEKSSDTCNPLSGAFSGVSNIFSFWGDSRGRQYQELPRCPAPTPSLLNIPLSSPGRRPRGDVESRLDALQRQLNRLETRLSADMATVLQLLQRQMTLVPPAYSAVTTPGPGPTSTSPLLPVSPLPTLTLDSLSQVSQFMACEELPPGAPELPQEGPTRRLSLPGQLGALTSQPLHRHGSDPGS

Compound	hERG current change (%, negative = inhibition) at 10uM [%]
Cc1ccc2nc(Cl)c(C#N)cc2c1	7.99
CCn1c(C(=O)N2CCC(C(=O)N3CCC4(CC3)OCCO4)CC2)cc2sccc21	-4.71
Cc1scc(C(=O)O)c1-c1c(C(=O)O)csc1C	23.8
CS(=O)(=O)N(Cc1nc2sc3c(c2c(=O)[nH]1)CCCC3)C1CCCCC1	6.55
C1=C(CCNc2ncnc3c2[nH]c2ccccc23)CCCC1	15.1
COc1ccc(-n2nnnc2/C=C/Nc2cc(C(F)(F)F)ccc2OC)cc1	15
COc1cc(CNc2ncn[nH]2)ccc1OCC(=O)NC(C)(C)C	24
CC(C)N(Cc1ccccc1)C(=O)COC(=O)c1cnccn1	-5.21
Brc1ccc(Oc2cc(Br)c(Br)cc2Br)c(Br)c1	23.4
CN1CCN(C(=O)C(=O)c2cn(CC(=O)N3CCCC3)c3ccccc23)CC1	18.7
COc1ccc(NC(=O)c2c(N)cnn2C)cc1	15.7
CC(=O)Nc1ccc(C2(c3ccc(NC(C)=O)cc3)C(=O)Nc3ccccc32)cc1	19.1
COC(=O)C(C)Oc1ccc2c(c1)O/C(=C\c1ccco1)C2=O (stereo not drawn)	-8.95
CC1(C)Cc2c(sc(NC(=O)COc3ccccc3)c2C#N)C(C)(C)N1	-9.66
CCC1CCC2(CC1)NC(=O)N(CC(=O)c1c(C)[nH]c3ccccc13)C2=O (stereo not drawn)	-7.81
COc1ccc(NC(=O)CN(C)C(=O)c2cc(S(=O)(=O)N3CCCCCC3)ccc2OC)cc1	-24
Cc1ccc(C)c(-n2c(-c3ccco3)n[nH]c2=S)c1	11.9
Cc1cc(S(=O)(=O)Nc2ccc3c(c2)COC3=O)ccc1F	7.2
O=C(COC(=O)c1ccc2ncsc2c1)Nc1cccc(Cl)c1	2.07
O=C(NC1CCCCC1)C(c1ccccn1)N(C(=O)c1csnn1)c1ccccc1F (stereo not drawn)	0.965
COc1ccc(-c2cc(C(F)F)n3ncc(C(=O)N4CCN5CCCC5C4)c3n2)cc1 (stereo not drawn)	-24.4

Compound	hERG current change (%, negative = inhibition) at 10uM [%]
CC1C(=O)N(Cc2ccc([N+](=O)[O-])cc2)c2ccccc2N1C(=O)c1c(F)cccc1F (stereo not drawn)	-16.6
COCCCN1C(=O)/C(=C\c2ccc3c(c2)OCO3)C(C(=O)OC)=C1C	10.2
COc1ccc(C(=O)CCc2ccccc2O)c(OC)c1	1.09
CCc1nc2ccccc2c(C(=O)Nc2ccc(F)cc2)c1C	2.62
CCC(C)NC(=O)CCC(=O)NNc1nc2ccccc2c2nc(C)nn12 (stereo not drawn)	8.1
O=C(NCC1CCCO1)C1CCCN(S(=O)(=O)c2ccc(F)cc2)C1 (stereo not drawn)	8.21
Cc1cc(NC(=O)/C=C/c2ccccc2)no1	11.1
COc1ccc2c(c1)C(=O)N(Cc1ccccc1)C(=O)C2(C)C	6.19
CCCCOc1ccc(/C(O)=C2/C(=O)C(=O)N(CCN(C)C)C2c2ccc(O)c(OC)c2)cc1 (stereo not drawn)	1.38
Cc1cc(/C=N\NC(=O)COc2cccc3cccnc23)c(C)n1-c1ccc(Br)cc1	-9.98
CCOC(=O)C1CCN(C(=O)Cn2cc(C(=O)c3ccco3)c3ccccc32)CC1	-11.4
Cc1c(F)cccc1NC(=O)c1ccc2c(c1)CCN2S(C)(=O)=O	1.55
COc1cc(/C=C2\C(=N)N3N=C(S(C)(=O)=O)SC3=NC2=O)ccc1OCCOc1ccccc1C	7.27
O=C(OCC(=O)N1N=C(c2ccc(Cl)cc2)CC1c1ccco1)c1ccco1 (stereo not drawn)	27.4
CCn1cc(C(=O)N[C@@H](CCSC)C(=O)NCCN2CCOCC2)c(=O)c2cc3c(cc21)OCO3	21.2
Cc1cc(NC(=O)COc2ccc(N(C)S(=O)(=O)c3ccccc3)cc2)no1	-24.9
COc1cc(CNc2ccc3[nH]c(=O)[nH]c3c2)cc(Br)c1OCc1ccccc1F	4.58
Cc1ccc([N+](=O)[O-])cc1NC(=O)c1ccc(C(C)(C)C)cc1	-8.49
COc1ccccc1-c1cn(S(=O)(=O)c2ccc(C)cc2)nc1N	8.9
COc1ccc(C2=NOC(Cn3nc(C(=O)NCc4ccccc4OC)cc3-c3ccccc3)C2)cc1 (stereo not drawn)	-16.2
CCCCn1c(N)c(N(CCOC)C(=O)CSCc2ccc(C)cc2)c(=O)[nH]c1=O	13.4

Source: paper PMC4336329 (PLoS ONE, 2015)
